Results from PubChem BioAssay AID624417 (National Center for Advancing Translational Sciences (NCATS), 2012).
Screen size: about 410,000 compounds; about 6,400 (1.6%) were called active. Inconclusive means that the source gave no clear call. Such entries were picked first, then a sample of the others. The call rests on the fitted dose curve; in most records, active means well fitted inhibition curve with a large enough effect; inconclusive means small, poorly fitted or top-dose-only effect; inactive means no such curve, though single readings can be large or run the other way. Potencies of inconclusive entries are doubtful fits and often do not repeat.

Target: Glucagon-like peptide 1 receptor (Homo sapiens) (UniProt P43220)
Chain of UniProt P43220 (P43220 whole entry, looked up): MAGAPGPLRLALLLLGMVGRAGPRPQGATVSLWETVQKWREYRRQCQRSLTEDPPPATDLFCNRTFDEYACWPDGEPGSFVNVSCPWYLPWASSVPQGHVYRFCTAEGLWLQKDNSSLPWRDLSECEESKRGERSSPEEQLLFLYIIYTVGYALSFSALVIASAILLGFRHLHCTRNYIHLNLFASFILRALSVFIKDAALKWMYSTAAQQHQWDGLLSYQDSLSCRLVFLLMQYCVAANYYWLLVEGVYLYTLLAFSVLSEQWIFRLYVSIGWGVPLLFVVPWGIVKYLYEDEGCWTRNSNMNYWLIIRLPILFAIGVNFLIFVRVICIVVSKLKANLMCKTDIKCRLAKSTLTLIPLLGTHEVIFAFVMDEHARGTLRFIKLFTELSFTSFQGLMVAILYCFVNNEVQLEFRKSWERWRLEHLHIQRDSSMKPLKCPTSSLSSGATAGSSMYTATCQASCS
Experiment: qHTS of GLP-1 Receptor Inverse Agonists (Inhibition Mode); further: nearly all actives have a fitted effect of over 55% in size
Conditions: HEK293 GLP-1R CRE-luciferase, luminescence, 24 h, GLP-1R form is constitutively active; series mostly up to 38.3 µM
Summary of the method: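 GLP-1R inverse agonism mode: basal reporter luminescence in engineered HEK293 cells measured after one day of compound exposure at 37 deg C, with a 12 min room-temperature detection step.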
Potency means the concentration at half of the fitted maximal effect; tags describe the fitted curve by direction and shape.

Potency, inactive:
COc1ccc(Cl)cc1NC(=O)c1cc2nc(-c3ccc4c(c3)OCO4)cc(C(F)(F)F)n2n1
CCc1nnc(NS(=O)(=O)c2ccc(Nc3ccc([N+](=O)[O-])c4nonc34)cc2)s1
Cc1cc(=O)[nH]c(SCC(=O)c2ccc(C(C)C)cc2)n1
CC(=Nc1ccc(Br)cc1)c1sc2ccccc2c1O
CCOc1ccccc1C1CC(=O)NC(SCC)=C1C#N (stereo not given)
COc1ccc(C(=O)N2CCN(S(=O)(=O)c3ccccc3)CC2)c(OC)c1
O=C(c1nc2ccccn2c1CNCCCn1ncc2ccccc21)N1CCCC1
O=C(Cc1ccccc1)Nc1ccccc1N1CCOCC1
O=C(O)CCCN1C(=O)/C(=C/C=C/c2ccco2)SC1=S
c1ccc2sc(NCC3CCCO3)nc2c1 (stereo not given)
CCOCCCn1c(=N)c(S(=O)(=O)c2ccc(C)cc2)cc2c(=O)n3cccc(C)c3nc21
CCc1noc(C)c1C(=O)N1CCCC(C(=O)c2cc(F)ccc2OC)C1 (stereo not given)
O=[N+]([O-])c1ccccc1N/N=C/c1ccccc1
Cc1cccn2c(=O)c(/C=C(\C#N)c3nc4ccccc4n3C)c(Oc3ccc(Br)cc3)nc12
Oc1c(Br)cc(/C=N/NC(=S)NCc2ccco2)cc1Br
Cc1cccc(NC(=O)c2cnc3sccn3c2=O)n1
O=C(Nc1cccc(C(=O)N2CCCCC2)c1)c1nsc2ccccc12

Potency, inconclusive:
O=c1c2ccccc2cnn1Cc1cccc(Br)c1 11.2 µM [inhibitor, single point]
CCc1ccc(NC(=O)CSCc2nc(N)nc(Nc3ccccc3CC)n2)cc1 31.6 µM [inhibitor, single point]
CCOc1ccccc1NC(=O)N1CCCC(c2nc(-c3ccc(C)o3)no2)C1 (stereo not given) 25.1 µM [inhibitor, single point]
CN1CCN(CC(=O)Nc2sc3c(c2C(=O)Nc2ccccc2)CCCC3)CC1 28.2 µM [inhibitor, single point]
O=S(=O)(c1cccc(Br)c1)N1CCN(c2ccnc3cc(Cl)ccc23)CC1 28.2 µM [inhibitor, single point]
CCN(CC)S(=O)(=O)c1cccc(-c2nnc(SCC(=O)NCCC3=CCCCC3)n2N)c1 5.62 µM [inhibitor, full curve, poor fit]
Cc1ccc(N2C(=O)CS(=O)(=O)C23C(=O)N(Cc2cccc(F)c2)c2ccccc23)cc1Cl (stereo not given) 11.2 µM [inhibitor, single point]
O=C(c1cc(-c2ccco2)nc2ccccc12)N(Cc1nnc(-c2ccc(Cl)cc2)o1)C1CC1 10 µM [inhibitor, partial curve]
CN1C(=O)/C(=C/c2cccc(Cl)c2)Sc2ccc(C(=O)N3CCOCC3)cc21 28.2 µM [inhibitor, single point]
COc1cc(NC(=O)c2csc(-c3ccncc3)n2)cc(C(=O)Nc2cccc(C(F)(F)F)c2)c1 28.2 µM [inhibitor, single point]
COc1ccc(CN(C(=O)CN2C(=O)C(C)Oc3ccccc32)C2CCCC2)c(OC)c1 (stereo not given) 14.1 µM [inhibitor, single point]
COc1ccc(S(=O)(=O)N2CCOC2CNC(=O)C(=O)NCCc2ccccc2OC)cc1C (stereo not given) 14.1 µM [inhibitor, partial curve, poor fit]
CC(NC(=O)COC(=O)C12CC3CC(CC(Br)(C3)C1)C2)c1ccccc1 (stereo not given) 12.6 µM [inhibitor, partial curve]
Cc1ccc(S(=O)(=O)N2CCOC2CNC(=O)C(=O)NCCc2c[nH]c3ccccc23)cc1 (stereo not given) 11.2 µM [inhibitor, single point]
Cc1nnc(SCc2ccc(F)cc2)n1NC/C=C/c1ccccc1 12.6 µM [inhibitor, single point]
CN(CCCNC(=O)CSc1cc(=O)n(C)c2ccc(Cl)cc12)Cc1ccccc1 12.6 µM [inhibitor, single point]
COc1ccc(CCNC(=O)c2ccccc2OCc2ccccc2)cc1 10 µM [inhibitor, partial curve, poor fit]
Cc1ccc(-c2nnc(-c3ccccc3)c(-c3ccccc3)n2)cc1 8.91 µM [inhibitor, partial curve, poor fit]
O=C(C1CCN(S(=O)(=O)c2ccc(Cl)s2)CC1)N1CCN(c2ccccc2)CC1 8.91 µM [inhibitor, partial curve]
C/C(CC(=O)Nc1ccc(Cl)c(C(F)(F)F)c1)=N\NC(=O)c1cc2ccccc2cc1O 15.8 µM [inhibitor, single point]
Nc1cc(OC(=O)c2ccccc2Br)nn1S(=O)(=O)c1ccccc1 20 µM [inhibitor, single point]
CCOC(=O)c1ccc(OCC2c3cc(OC)c(OC)cc3CCN2C(=O)Cc2ccc(F)cc2)cc1 (stereo not given) 28.2 µM [inhibitor, single point]
COc1ccccc1OCC(=O)N(Cc1nc(-c2ccc(Cl)cc2)no1)C(C)C 10 µM [inhibitor, partial curve, poor fit]
COc1ccc(O)c(C(=O)c2cnn(-c3ccc(Cl)cc3)c2)c1 11.2 µM [inhibitor, single point]
COc1cccc(CNC(=O)c2ccccc2-c2ccccc2)c1 22.4 µM [inhibitor, single point]
COc1ccc(CN(CCC(c2ccc3c(c2)OCO3)c2ccccc2OC)C(C)=O)cc1 (stereo not given) 17.8 µM [inhibitor, single point]
CCc1ccc(NC(=O)c2cc(S(=O)(=O)N3CCc4ccccc43)cn2C)cc1 10 µM [inhibitor, partial curve]
Cc1ccc(Cl)c(OCC(=O)N2CCc3ccccc3C2)c1 10 µM [inhibitor, partial curve, poor fit]
CC(C)C(=O)NC(c1ccco1)c1ccc2cccnc2c1O (stereo not given) 2.24 µM [inhibitor, full curve, poor fit]
CC(C)c1ccc(CN2CCN(C(=O)CSc3nnnn3C3CC3)CC2)cc1 8.91 µM [inhibitor, partial curve, poor fit]
COc1ccccc1N1CCN(C(=O)c2c(-c3ccccc3)noc2C)CC1 11.2 µM [inhibitor, partial curve, poor fit]
CCN(CC)c1ccc(/C=N/NC(=S)NCc2ccccc2)c(O)c1 1.41 µM [inhibitor, full curve, poor fit]
CSCc1c(C(=O)Nc2ccccc2N2CCOCC2)oc2ccccc12 2 µM [inhibitor, full curve, poor fit]
CCN(CC)c1ccc(CNc2nc3ccccc3n2CCN2CCCCC2)cc1 7.94 µM [inhibitor, partial curve, poor fit]
O=c1oc2ccccc2cc1-c1cn2ccccc2n1 1.58 µM [inhibitor, full curve, poor fit]
CCOC(=O)c1ccc(NC(=O)c2cccc(C)c2[N+](=O)[O-])cc1 10 µM [inhibitor, single point]
CN(C(=O)c1ccccc1F)C(c1ccccc1)c1ccccc1 11.2 µM [inhibitor, partial curve, poor fit]
Brc1ccc(-c2nnc(Cc3ccccc3)o2)cc1 28.2 µM [inhibitor, partial curve, poor fit]
CCN(c1ccccc1)S(=O)(=O)c1ccc(NC(=O)c2ccco2)cc1 22.4 µM [inhibitor, partial curve, poor fit]
COC(=O)C1=CN(c2ccc3c(c2)OCO3)C(N)=C(C#N)C1c1ccc(-c2ccccc2)cc1 (stereo not given) 14.1 µM [inhibitor, partial curve, poor fit]
Cc1cccc(C)c1Nc1c(-c2ccsc2)nc2ccccn12 11.2 µM [inhibitor, partial curve, poor fit]
NC(=O)c1nsc(C(=O)N(c2cccc(O)c2)C(C(=O)NC2CCCC2)c2ccc(Cl)cc2)c1N (stereo not given) 11.2 µM [inhibitor, single point]
O=C(CSc1ccc2ccccc2c1)NCc1cccs1 12.6 µM [inhibitor, partial curve, poor fit]
Cc1cc(Nc2cccc(C(F)(F)F)c2)nc2ccc(NC(=O)c3ccc(N(C)C)cc3)cc12 2.24 µM [inhibitor, partial curve, poor fit]
COc1ccc2oc(C(=O)N3CCCc4ccccc43)c(C)c2c1 14.1 µM [inhibitor, single point]
CCOc1ccccc1NC(=O)c1c(C)cc(C)nc1SCC(=O)c1cccc(OC)c1 10 µM [inhibitor, single point]

Potency, active:
Cc1cc(C)c(N2CCN(S(=O)(=O)N3CCCCCC3)CC2)c(C)c1 10 µM
CCc1ccc(-n2nc(C)c3c(C(=O)Nc4cccc(C(F)(F)F)c4)cc(C)nc32)cc1 2.24 µM
